Among all 150,000 compounds or so, about 540 (0.36%) showed an effect of 50% or more. This is one part of the list.

The experiment concerns Plasmodium falciparum. Briefly: Primary screen in NF54 nanoGlo assay, in single point, at 2uM, 72h; a lower Z score goes with more inhibition. The experiment is classed as functional, Erythrocyte. The following applies: timepoint 72 hour.
Broadly, the % Inhibition is the relative decrease from the control value, in per cent. `COCCNC(=O)N[C@@H](C)Cc1ccco1`: the “% Inhibition” value is -17% and the Z score stood at 2.53.
As to `Cc1cccc([C@H]2C(=O)NCCN2C(=O)Cn2nc(C)cc2C)c1`, the “% Inhibition” value is -13% and the Z score is listed as 2.49.
Consider `CCc1c(C)nc(N(CC)CC)c(C#N)c1C#N`, for which the “% Inhibition” value was -1% and the Z score is 0.1.
The matching figures for `COCCn1nc(C)c(CNC[C@H]2CCC=CO2)c1C`: -12% and 1.31.
In the case of `CC(=O)c1cccc(-n2c(=O)c3ccccc3n(CC(=O)NCCN3CCCC3)c2=O)c1`, the “% Inhibition” value is listed as -16% and the Z score turned out to be 1.67.
In the case of `COc1ccc(NC(=O)Cn2c(C)ccc2C)cc1-c1nnc(C)o1`, the “% Inhibition” value was -9% and the Z score amounted to 1.74.
As for `O=C(Cc1csc(-c2cccnc2)n1)NCc1ccncc1`, the “% Inhibition” value was 1% and the Z score is -0.13.
On to `CC(=O)/C(=N\Nc1ccc(Cl)c(C(N)=O)c1)Nc1ccc(C)cc1C`, for which the “% Inhibition” value was -7% and the Z score is 0.84.
For `O=C(CNc1cc(C(F)(F)F)cc(C(F)(F)F)c1)NCc1ccc2c(c1)OCO2`, in that order: -10% and 1.26.
As to `CCc1cc2c(N3CCN(c4ccnnc4)CC3)nc(C)nc2s1`, the “% Inhibition” value is -2% and the Z score came out at 0.45.
For `CCC(=O)N1CCc2nc(-c3ccncc3)nc(N3CCCC3)c2CC1`, the “% Inhibition” value is -27% and the Z score is 4.61.
For the compound `O=C(Nc1cc(C2CCCCC2)[nH]n1)c1cncnc1C1CC1`, the “% Inhibition” value is reported as -3% and the Z score turned out to be 0.69.
With `CC(C)[C@H](Oc1ccccc1)C(=O)N1CC2(CNC(=O)N2)C1`, the “% Inhibition” value is -10% and the Z score stood at 1.67.
Consider `Cc1cccc(C(=O)N2[C@H](C(=O)N3CCOCC3)COC23CCN(C(=O)c2cccc(F)c2)CC3)c1`, for which the “% Inhibition” value came out at 0% and the Z score came to 0.01.
In the case of `CCONC(=O)NC1CCCCC1O` (stereo not given), the “% Inhibition” value is -2% and the Z score stood at 0.19.
`COc1cccc(-n2ccnc2-c2ccc(C#CCO)cc2)c1`: the “% Inhibition” value worked out at 2% and the Z score is reported as -0.34.
For the compound `O=C(NCc1ccc(OC2CCCC2)nc1)c1ccc(OCC2CC2)cc1`, the “% Inhibition” value is on record as -9% and the Z score is 0.92.
Turning to `CN(Cc1ccc(Br)o1)C(=O)C(C)(C)C`, the “% Inhibition” value was -9% and the Z score was 1.67.
Take `O=C(NCc1cc2n(n1)CCN(c1ncc(F)cn1)C2)C1CCC1`: the “% Inhibition” value is on record as -13% and the Z score is given as 1.63.
Take `COc1cccc(CN2CC3(CCN(C(=O)Cc4cc(C)no4)CC3)CC2=O)c1`: the “% Inhibition” value was -12% and the Z score is listed as 1.67.
For `Cn1c(C(C)(C)NC(=O)CN2CCOCC2)nc2ccccc21`, the “% Inhibition” value was -5% and the Z score was 0.96.
For `Cc1cc(C(=O)NCCCn2cccn2)nc(N2CCOCC2)n1`, in that order: 31% and -0.55.
With `CCCN1CCC[C@H]1C(=O)NCc1cccc(NC(=O)c2ccco2)c1`, the “% Inhibition” value is on record as -11% and the Z score worked out at 1.39.
In the case of `Cc1ccccc1CC(C)(C)NC(=O)[C@H]1CC12CCNCC2`, the “% Inhibition” value is given as 3% and the Z score is reported as -0.5.
For `CC[C@H](Oc1ccc(=O)n(-c2cc(Cl)ccc2C)n1)C(=O)NCCOC`, the “% Inhibition” value is recorded as -15% and the Z score came to 2.25.
As to `CCc1ccccc1NC(=O)c1[nH]c2cc(C)sc2c1CN1CCOCC1`, the “% Inhibition” value was -16% and the Z score was 1.55.
`O=C(c1cnc2[nH]cnc2c1)N1CC[C@H](C(F)(F)F)C1`: the “% Inhibition” value is -7% and the Z score is given as 1.2.
For the compound `COc1ccc(-c2nnc([C@H](C)N(C)Cc3ccccc3N3CCOCC3)o2)cc1`, the “% Inhibition” value is given as -1% and the Z score was 0.13.
Consider `CC(C)NC(=O)CCc1cc2n(n1)CCN(C(=O)[C@H]1CCCO1)C2`, for which the “% Inhibition” value amounted to 9% and the Z score is reported as -1.19.
For the compound `Cc1ccc2c(c1)Oc1cc(Cl)c(S(=O)(=O)N3CC(C)OC(C)C3)cc1C(=O)N2` (stereo not given), the “% Inhibition” value is on record as -13% and the Z score is 1.91.
The matching figures for `O=C([C@H]1CC12CCN(Cc1ccc(F)cc1F)CC2)N1CCN(Cc2ccccc2)CC1`: -2% and 0.23.
As for `COc1cc(NC[C@H]2CN(C)CCN2C)nc(N)n1`, the “% Inhibition” value turned out to be 2% and the Z score is recorded as -0.46.
For the compound `CN(CC(=O)Nc1cc(S(=O)(=O)N2CCOCC2)ccc1N1CCOCC1)Cc1cccs1`, the “% Inhibition” value is given as -41% and the Z score came out at 4.81.
Regarding `O=C1NCCN1C(=O)N1CCc2sc(Cl)cc2C1`, the “% Inhibition” value worked out at 6% and the Z score is given as -0.67.
Turning to `Cn1nccc1CNS(=O)(=O)C1CCCCCC1`, the “% Inhibition” value is on record as -9% and the Z score was found to be 1.17.
As to `Cc1ccc(-c2nc(CN3CCC[C@H](c4ccn(CCO)n4)C3)c(C)o2)cc1`, the “% Inhibition” value came to 9% and the Z score was -1.16.
Take `Cc1ccc2c(c1)[C@@H](NC(=O)NCCc1nnc(C)s1)CO2`: the “% Inhibition” value is -13% and the Z score is 1.28.
Turning to `CCOC1CC(Cc2nc(-c3cccc(NC(=O)C(C)C)c3)no2)C1` (stereo not given), the “% Inhibition” value turned out to be 0% and the Z score was determined as 0.01.
Consider `O=C(Cn1cccn1)Nc1nc(C2CC2)cs1`, for which the “% Inhibition” value is 0% and the Z score is listed as -0.07.
On to `Cc1cc(N2CCNC(=O)C2)n2nc(C)cc2n1`, for which the “% Inhibition” value turned out to be 5% and the Z score is reported as -0.99.
For the compound `Cc1cccc(C)c1OCC(O)CN1CCCC1c1cnn(C)c1` (stereo not given), the “% Inhibition” value was -11% and the Z score came out at 1.57.
For `Cc1ncncc1C(=O)NCc1cc(Cl)cc2c(C)c(-c3ccccc3)[nH]c12`, in that order: 1% and -0.17.
As for `CCN1C(=O)c2ccccc2N2C(=O)CC[C@@]12C(=O)Nc1cccc(OC)c1`, the “% Inhibition” value is given as 92% and the Z score is -11.06.
On to `COCCc1ccc(S(=O)(=O)NC2(c3ccc(Br)cc3)CCC2)cc1`, for which the “% Inhibition” value is listed as -6% and the Z score amounted to 0.74.
As for `CCn1ncc2cc(C(=O)Nc3nc4ccc(F)cc4[nH]3)c(C)nc21`, the “% Inhibition” value is listed as -7% and the Z score came to 0.68.
Regarding `O=C1N[C@@H](c2cccs2)Nc2ncccc21`, the “% Inhibition” value is 1% and the Z score is recorded as -0.08.
For `Cc1ccc([C@H]2CN(C(=O)c3ccc4nc(C)c(C)nc4c3)C[C@@H]2N(C)C)cc1`, in that order: -3% and 0.55.
`CC1CC2(C)Oc3ccccc3C3OCC1(COC(=O)NC1CCCCC1)[C@@H](C)C32` (stereo not given in full): the “% Inhibition” value was -8% and the Z score turned out to be 1.03.
Consider `COC[C@H]1CN(C2CCC2)CC12CCN(C(=O)Cc1cccc(F)c1)CC2`, for which the “% Inhibition” value is -5% and the Z score stood at 0.62.
Consider `Cc1noc(C)c1C(C)C(=O)NCC(C)COCc1ccccc1` (stereo not given), for which the “% Inhibition” value was -11% and the Z score was found to be 1.2.
Turning to `CCn1cnc2c(N3CCC(NCc4ccccc4)CC3)ncnc21`, the “% Inhibition” value is listed as -6% and the Z score was 0.89.
In the case of `Cc1cccc2c1CCN2C(=O)c1nc(=O)[nH][nH]1`, the “% Inhibition” value turned out to be 15% and the Z score is on record as -1.78.
As for `CN(C)C(=O)CN1CC[C@H](NC(=O)c2cc(-c3ccccc3)n[nH]2)[C@@H](O)C1`, the “% Inhibition” value is reported as 1% and the Z score is listed as -0.12.
With `C=CCC1(CC=C)CCCN1C(=O)CC(=O)Nc1ccc(C)cc1C`, the “% Inhibition” value was found to be 7% and the Z score is listed as -0.94.
Turning to `Cc1ccc(NC(=O)N2CC[C@]3(C2)c2nc[nH]c2CCN3C)c(C)c1`, the “% Inhibition” value is -12% and the Z score is recorded as 2.06.
On to `COC1CC(C(=O)NCC2(OC)CCC(C(F)F)CC2)C1` (stereo not given), for which the “% Inhibition” value was found to be 15% and the Z score was -1.94.
Regarding `O=S(=O)(c1ccccc1)N1CCC(O)(c2ccccc2)C2CCCCC21` (stereo not given), the “% Inhibition” value is listed as -6% and the Z score is listed as 0.88.
Regarding `Cc1ccc(NC[C@H]2CCN(Cc3cnc(C)s3)C2)nc1`, the “% Inhibition” value is reported as -4% and the Z score is given as 0.65.
For the compound `Cc1cnn(CC2CCCN2C(C)C(=O)NCC2CCCO2)c1` (stereo not given), the “% Inhibition” value is given as -3% and the Z score was 0.24.
For `c1ccc2c(-c3nc([C@H]4CCOC4)no3)n[nH]c2c1`, in that order: -9% and 1.8.
`Cc1nc(CC(=O)NS(=O)(=O)c2cccc(F)c2F)c(C)s1`: the “% Inhibition” value is reported as -8% and the Z score was 0.79.
Turning to `O=C(N[C@H]1CCn2nccc2C1)c1cc2ccccc2o1`, the “% Inhibition” value is recorded as -16% and the Z score was 2.48.
As to `COc1cc2c(cc1Cn1cc([C@H]3CCOC3)nn1)CCC2`, the “% Inhibition” value is recorded as -10% and the Z score is recorded as 1.37.
Consider `CCOc1oc(C)nc1C(=O)NCc1nccs1`, for which the “% Inhibition” value was -2% and the Z score turned out to be 0.2.
For the compound `CCN(CC)C(=O)c1csc(-c2ccc(OCc3ccccc3Cl)c(OC)c2)n1`, the “% Inhibition” value is listed as -9% and the Z score was determined as 1.19.
Consider `COCCN(CCOC)C(=O)Nc1ccc(Cl)cc1`, for which the “% Inhibition” value is on record as -4% and the Z score is 0.6.
For `O=C(Cc1cn2c(n1)CCCC2)Nc1cc(C(F)(F)F)n[nH]1`, in that order: 4% and -0.54.
`O=C(CC1CCCCC1)NC[C@@H](CO)Cc1ccc(F)cc1`: the “% Inhibition” value is reported as -7% and the Z score stood at 1.08.
The matching figures for `COc1ccc(C)nc1-c1cccc(OC)c1C(=O)N(C(C)C)C(C)C`: -8% and 0.79.
For `O=C(Nc1ccc2c(c1)C(=O)N1CCC[C@H]1C(O)=N2)c1ccccc1F`, in that order: -21% and 2.8.
On to `Clc1cnccc1CN1CCO[C@H](c2cccnc2)C1`, for which the “% Inhibition” value is given as -11% and the Z score is reported as 1.5.
Turning to `CC(C)c1ccc(-c2nc(N3CCN(c4ccccc4)CC3)nc3nn(C)c(N)c23)cc1`, the “% Inhibition” value is reported as -15% and the Z score came to 1.9.
Regarding `CC(=O)N1C[C@H]2CC[C@@H](C1)N(Cc1ccc(F)cc1Cl)C2`, the “% Inhibition” value is recorded as -20% and the Z score is recorded as 1.82.
Regarding `O=C(c1cnc2sc3c(n2c1=O)CCC3)N1CCCCC1`, the “% Inhibition” value was -8% and the Z score was determined as 1.12.
For the compound `C=CCNS(=O)(=O)c1cc(F)c(Br)cc1OC`, the “% Inhibition” value is reported as 1% and the Z score is given as -0.06.
For `COc1cc(OC)c(S(=O)(=O)Nc2ccccc2)cc1S(=O)(=O)Nc1ccccc1`, the “% Inhibition” value is recorded as -9% and the Z score is 1.3.
In the case of `Cc1ncccc1NC(=O)C1CC(F)(F)C1`, the “% Inhibition” value is on record as -11% and the Z score was found to be 1.34.
For `O=C(Nc1cccc2[nH]ccc12)N(CCC(F)(F)F)C1CCCCC1`, the “% Inhibition” value is reported as -13% and the Z score came out at 1.88.
Consider `Cc1csc(NC(=O)N(CC2CCCO2)C2CCS(=O)(=O)C2)n1` (stereo not given), for which the “% Inhibition” value is 2% and the Z score was -0.27.
`CCN1C(=O)c2ccccc2N[C@@H]1c1cc2ccccc2nc1O`: the “% Inhibition” value amounted to 9% and the Z score is reported as -1.68.
In the case of `Cc1nc(N2CCCC2)ncc1C(=O)N1CCN(c2ccccc2F)CC1`, the “% Inhibition” value is -14% and the Z score stood at 2.08.
The matching figures for `Fc1ccc([C@@H]2COCCN2Cc2nnc(C3CC3)o2)cc1`: -7% and 0.75.
`NS(=O)(=O)c1ccc(-c2nc(-c3cccnn3)no2)cc1`: the “% Inhibition” value is -15% and the Z score is 1.46.
As to `CN(Cc1cscn1)C(=O)Cn1c(C2CCCCC2)nc2ccccc21`, the “% Inhibition” value is 2% and the Z score is recorded as -0.24.
For `O=C(Nc1cnn(CC(=O)N2CCC(O)(c3cccc(C(F)(F)F)c3)CC2)c1)c1ccco1`, in that order: -12% and 1.52.
